Experiments:
IKKβ-(1-733) = target: T1, IKKβ-(1-733) (human, UniProt O14920 1-733); test: GST pull-down of [35S]-labelled in vitro translated protein
T1 construct: in vitro translated, [35S]-labelled; also transfected in HeLa cells for the reporter assay
T1 sequence (looked up): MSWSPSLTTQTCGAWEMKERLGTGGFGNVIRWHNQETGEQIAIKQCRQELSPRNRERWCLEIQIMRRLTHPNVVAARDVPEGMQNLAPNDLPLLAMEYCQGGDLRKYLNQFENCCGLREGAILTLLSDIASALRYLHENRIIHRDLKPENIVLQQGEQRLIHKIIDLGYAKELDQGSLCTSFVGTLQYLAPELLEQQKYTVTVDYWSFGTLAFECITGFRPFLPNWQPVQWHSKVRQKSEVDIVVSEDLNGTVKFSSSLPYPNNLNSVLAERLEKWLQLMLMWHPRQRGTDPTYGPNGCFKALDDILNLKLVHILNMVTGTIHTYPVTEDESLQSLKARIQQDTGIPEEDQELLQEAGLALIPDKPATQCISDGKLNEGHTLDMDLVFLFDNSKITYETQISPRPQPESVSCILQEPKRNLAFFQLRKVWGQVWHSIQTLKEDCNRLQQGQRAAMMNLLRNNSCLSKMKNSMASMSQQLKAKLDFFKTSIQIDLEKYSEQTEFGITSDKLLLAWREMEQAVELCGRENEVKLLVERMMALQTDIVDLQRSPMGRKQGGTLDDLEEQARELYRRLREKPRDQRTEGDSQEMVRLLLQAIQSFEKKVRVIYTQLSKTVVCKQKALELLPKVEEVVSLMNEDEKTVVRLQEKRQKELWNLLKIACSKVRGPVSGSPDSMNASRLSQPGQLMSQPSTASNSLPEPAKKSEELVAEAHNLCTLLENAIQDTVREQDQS

IKKβ-(1-456) = target: T2, IKKβ-(1-456) (human, UniProt O14920 1-456); test: as above
T2 construct: in vitro translated, [35S]-labelled
T2 sequence (looked up): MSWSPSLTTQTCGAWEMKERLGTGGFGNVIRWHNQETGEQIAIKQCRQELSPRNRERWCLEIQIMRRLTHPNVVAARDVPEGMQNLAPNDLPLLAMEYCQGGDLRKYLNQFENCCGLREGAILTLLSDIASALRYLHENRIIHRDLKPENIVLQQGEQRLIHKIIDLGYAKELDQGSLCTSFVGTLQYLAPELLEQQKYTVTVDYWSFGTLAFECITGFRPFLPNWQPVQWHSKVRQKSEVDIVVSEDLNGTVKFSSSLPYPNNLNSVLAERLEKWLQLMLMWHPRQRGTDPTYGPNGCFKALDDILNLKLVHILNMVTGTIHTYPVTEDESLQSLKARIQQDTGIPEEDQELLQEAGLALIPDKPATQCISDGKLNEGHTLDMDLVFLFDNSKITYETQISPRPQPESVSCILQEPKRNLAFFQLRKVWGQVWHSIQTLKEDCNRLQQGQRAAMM

IKKβ-(1-605) = target: T3, IKKβ-(1-605) (human, UniProt O14920 1-605); test: as above
T3 construct: in vitro translated, [35S]-labelled
T3 sequence (looked up): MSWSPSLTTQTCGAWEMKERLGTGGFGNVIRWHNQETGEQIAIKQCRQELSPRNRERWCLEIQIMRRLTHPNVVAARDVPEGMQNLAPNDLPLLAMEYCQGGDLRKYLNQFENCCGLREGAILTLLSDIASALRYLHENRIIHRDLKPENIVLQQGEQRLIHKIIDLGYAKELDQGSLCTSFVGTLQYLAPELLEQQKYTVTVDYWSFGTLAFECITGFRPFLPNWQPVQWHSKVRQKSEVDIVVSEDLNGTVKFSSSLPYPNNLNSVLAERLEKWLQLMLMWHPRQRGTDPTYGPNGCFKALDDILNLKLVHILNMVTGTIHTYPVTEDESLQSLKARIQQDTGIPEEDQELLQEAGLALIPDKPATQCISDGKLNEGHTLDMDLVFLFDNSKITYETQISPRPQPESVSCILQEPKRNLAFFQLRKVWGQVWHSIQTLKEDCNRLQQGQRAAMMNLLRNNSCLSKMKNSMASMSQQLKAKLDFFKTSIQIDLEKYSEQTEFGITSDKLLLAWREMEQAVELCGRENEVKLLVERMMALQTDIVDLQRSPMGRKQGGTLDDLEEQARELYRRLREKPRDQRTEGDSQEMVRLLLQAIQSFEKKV

IKKβ-(307-756) = target: T4, IKKβ-(307-756) (human, UniProt O14920 307-756); test: as above
T4 construct: in vitro translated, [35S]-labelled
T4 sequence (looked up): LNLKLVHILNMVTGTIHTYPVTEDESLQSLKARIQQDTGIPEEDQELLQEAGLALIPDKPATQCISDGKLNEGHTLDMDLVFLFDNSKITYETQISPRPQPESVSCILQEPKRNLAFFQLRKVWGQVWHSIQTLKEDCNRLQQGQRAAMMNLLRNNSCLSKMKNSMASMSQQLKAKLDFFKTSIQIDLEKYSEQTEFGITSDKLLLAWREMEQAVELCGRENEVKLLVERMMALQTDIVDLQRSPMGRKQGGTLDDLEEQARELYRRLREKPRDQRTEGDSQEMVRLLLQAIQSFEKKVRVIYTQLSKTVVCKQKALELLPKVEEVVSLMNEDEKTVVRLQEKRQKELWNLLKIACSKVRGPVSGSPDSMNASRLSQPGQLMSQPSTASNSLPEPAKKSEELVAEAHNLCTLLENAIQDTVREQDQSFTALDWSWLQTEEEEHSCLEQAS

IKKβ-(1-662) = target: T5, IKKβ-(1-662) (human, UniProt O14920 1-662); test: as above
T5 construct: range 1-662; in vitro translated, [35S]-labelled
T5 sequence (looked up): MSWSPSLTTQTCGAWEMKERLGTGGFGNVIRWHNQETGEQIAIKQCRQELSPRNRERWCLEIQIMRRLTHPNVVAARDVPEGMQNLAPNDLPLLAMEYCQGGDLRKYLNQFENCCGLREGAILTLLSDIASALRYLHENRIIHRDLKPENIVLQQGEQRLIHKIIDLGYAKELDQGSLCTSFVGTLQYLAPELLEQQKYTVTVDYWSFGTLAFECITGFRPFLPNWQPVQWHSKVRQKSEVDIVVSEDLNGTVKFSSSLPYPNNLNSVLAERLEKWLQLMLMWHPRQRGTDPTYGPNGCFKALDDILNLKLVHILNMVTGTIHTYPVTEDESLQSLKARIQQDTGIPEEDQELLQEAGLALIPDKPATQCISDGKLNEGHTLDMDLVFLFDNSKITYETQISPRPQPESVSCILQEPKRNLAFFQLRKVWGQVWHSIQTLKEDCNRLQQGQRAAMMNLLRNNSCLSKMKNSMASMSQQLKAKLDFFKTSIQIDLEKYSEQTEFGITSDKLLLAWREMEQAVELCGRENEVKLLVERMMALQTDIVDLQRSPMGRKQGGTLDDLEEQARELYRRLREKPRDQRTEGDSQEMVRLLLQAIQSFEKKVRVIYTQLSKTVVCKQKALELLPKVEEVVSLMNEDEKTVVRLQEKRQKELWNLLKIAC

IKKβ-(1-644) = target: T6, IKKβ-(1-644) (human, UniProt O14920 1-644); test: as above
T6 construct: in vitro translated, [35S]-labelled
T6 sequence (looked up): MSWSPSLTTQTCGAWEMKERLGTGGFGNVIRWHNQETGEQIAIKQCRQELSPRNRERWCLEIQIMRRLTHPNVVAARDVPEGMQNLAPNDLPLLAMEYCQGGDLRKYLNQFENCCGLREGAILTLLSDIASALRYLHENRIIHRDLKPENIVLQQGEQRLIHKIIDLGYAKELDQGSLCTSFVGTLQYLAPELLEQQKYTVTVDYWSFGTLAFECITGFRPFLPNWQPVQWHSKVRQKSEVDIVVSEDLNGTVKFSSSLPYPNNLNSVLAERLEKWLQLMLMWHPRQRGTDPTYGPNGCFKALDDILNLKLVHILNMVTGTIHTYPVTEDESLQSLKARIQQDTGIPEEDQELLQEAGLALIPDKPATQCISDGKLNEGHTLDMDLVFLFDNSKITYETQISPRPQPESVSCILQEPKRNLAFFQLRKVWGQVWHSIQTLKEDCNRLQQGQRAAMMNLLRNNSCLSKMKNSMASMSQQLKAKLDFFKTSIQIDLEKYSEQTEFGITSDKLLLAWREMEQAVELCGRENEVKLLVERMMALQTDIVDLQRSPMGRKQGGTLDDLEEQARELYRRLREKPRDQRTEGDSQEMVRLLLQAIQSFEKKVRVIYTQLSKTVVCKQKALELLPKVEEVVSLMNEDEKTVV

IKKβ-(486-756) = target: T7, IKKβ-(486-756) (human, UniProt O14920 486-756); test: as above
T7 construct: in vitro translated, [35S]-labelled
T7 sequence (looked up): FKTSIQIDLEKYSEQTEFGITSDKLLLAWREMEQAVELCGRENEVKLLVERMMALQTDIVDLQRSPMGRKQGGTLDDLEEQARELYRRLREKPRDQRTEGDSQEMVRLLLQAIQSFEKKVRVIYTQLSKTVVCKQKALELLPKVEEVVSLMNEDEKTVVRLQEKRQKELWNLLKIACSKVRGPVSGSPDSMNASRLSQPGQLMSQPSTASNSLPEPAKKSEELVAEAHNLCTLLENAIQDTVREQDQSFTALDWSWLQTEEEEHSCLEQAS

IKKβ-(458-756) = target: T8, IKKβ-(458-756) (human, UniProt O14920 458-756); test: as above
T8 construct: in vitro translated, [35S]-labelled
T8 sequence (looked up): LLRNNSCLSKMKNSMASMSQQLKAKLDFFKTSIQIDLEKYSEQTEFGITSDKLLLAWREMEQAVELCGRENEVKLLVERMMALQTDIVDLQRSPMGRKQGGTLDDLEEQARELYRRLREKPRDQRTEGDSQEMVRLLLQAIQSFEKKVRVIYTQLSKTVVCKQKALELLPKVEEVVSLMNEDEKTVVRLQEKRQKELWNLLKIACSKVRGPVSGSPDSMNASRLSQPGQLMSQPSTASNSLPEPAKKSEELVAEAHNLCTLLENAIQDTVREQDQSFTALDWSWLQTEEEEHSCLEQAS

IKKβ-(1-707) = target: T9, IKKβ-(1-707) (human, UniProt O14920 1-707); test: as above
T9 construct: range 1-707; in vitro translated, [35S]-labelled
T9 sequence (looked up): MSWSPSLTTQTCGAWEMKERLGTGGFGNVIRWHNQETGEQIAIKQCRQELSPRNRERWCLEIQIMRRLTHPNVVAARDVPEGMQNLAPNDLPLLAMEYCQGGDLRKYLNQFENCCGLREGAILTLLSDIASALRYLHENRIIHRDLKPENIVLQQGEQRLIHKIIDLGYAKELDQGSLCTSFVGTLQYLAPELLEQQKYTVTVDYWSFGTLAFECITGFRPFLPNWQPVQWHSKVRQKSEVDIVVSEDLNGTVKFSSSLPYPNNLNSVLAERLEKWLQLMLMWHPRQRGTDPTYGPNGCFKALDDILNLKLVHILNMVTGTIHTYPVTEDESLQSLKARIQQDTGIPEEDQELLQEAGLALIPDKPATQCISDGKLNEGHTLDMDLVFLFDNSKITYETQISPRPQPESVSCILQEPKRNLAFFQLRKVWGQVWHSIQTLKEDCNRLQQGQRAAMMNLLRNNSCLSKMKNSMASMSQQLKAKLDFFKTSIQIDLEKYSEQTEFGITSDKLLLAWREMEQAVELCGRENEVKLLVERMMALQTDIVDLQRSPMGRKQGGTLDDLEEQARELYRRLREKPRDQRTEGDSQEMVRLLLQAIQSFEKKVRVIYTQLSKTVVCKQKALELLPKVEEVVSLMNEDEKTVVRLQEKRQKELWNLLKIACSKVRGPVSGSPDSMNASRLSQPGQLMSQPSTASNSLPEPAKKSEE

NEMO-(1-302) = target: T10, NEMO-(1-302) (human, UniProt Q9Y6K9 1-302); test: GST pull-down of [35S]-labelled NEMO truncations
T10 construct: range 1-302; [35S]-labelled in vitro translated; also transfected in COS or HEK293 cells
Excerpt: (§1) Equal amounts of each protein were used for subsequent GST pull-down analyses.

NEMO-(197-419) = target: T11, NEMO-(197-419) (human, UniProt Q9Y6K9 197-419); test: GST pull-down of [35S]-labelled NEMO truncations
T11 construct: range 197-419; [35S]-labelled in vitro translated; also transfected in COS or HEK293 cells
Excerpt: as §1

NEMO-(44-419) = target: T12, NEMO-(44-419) (human, UniProt Q9Y6K9); test: GST pull-down of [35S]-labelled NEMO truncations
T12 construct: range 44-419; [35S]-labelled in vitro translated; also transfected in COS or HEK293 cells
Excerpt: as §1

NEMO-(86-419) = target: T13, NEMO-(86-419) (human, UniProt Q9Y6K9 86-419); test: GST pull-down of [35S]-labelled NEMO truncations
T13 construct: range 86-419; [35S]-labelled in vitro translated; also transfected in COS or HEK293 cells
Excerpt: as §1

Measured: binding result

B1: GST alone (other)
chain: not shown
notes: control bait in the GST pull-downs
no binding: all assays above
